The list shows a part of the results. No stated cut-off is given here; in the data, active = 3.2 or more and inactive = the rest. Most of these values are background signal.
The binders below were run against SHP2 C-SH2 domain E139D (assay: enrichment score (SH2-bound / input frequency) (ratio); bacterial display of known human phosphotyrosine sites (pTyr-Var adds point mutants) read by sequencing; higher = stronger binding; tyrosines were phosphorylated by kinases first). Conditions: peptide library: pTyr-Var.
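Further: displayed peptides selected on beads carrying the immobilized SH2 domain, with library peptides lacking any tyrosine serving as negative controls.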

Enrichment score, active:
HRLSTYTKMLF [CHST8_Y251] 3.21

Enrichment score, inactive:
GHRPVYSEDEQ [CHST6_Y362_Y358H] 0.632
HHLSTYTKMLF [CHST8_Y251_R247H] 2.93
EYKKKYSDADI [CKAP5_Y1860] 0.545
EYQKKYSDADI [CKAP5_Y1860_K1857Q] 0.616
EFKKKYSDADI [CKAP5_Y1860_YF] 0.627
DLAGRYYALKS [CKB_Y173] 0.788
DLAGRYYALRS [CKB_Y173_K177R] 0.868
LAGRYYALKSM [CKB_Y174] 1.86

What follows are binders tested against SHP2 C-SH2 domain wild-type in the same assay as above. Conditions: peptide library: pTyr-Var.

Enrichment score, inactive:
GHRPVYSEDEQ [CHST6_Y362_Y358H] 0.632
EYKKKYSDADI [CKAP5_Y1860] 0.562
EYQKKYSDADI [CKAP5_Y1860_K1857Q] 0.538
EFKKKYSDADI [CKAP5_Y1860_YF] 0.538
DLAGRYYALKS [CKB_Y173] 0.804
DLAGRYYALRS [CKB_Y173_K177R] 0.881
LAGRYYALKSM [CKB_Y174] 1.44

Enrichment score, active:
HRLSTYTKMLF [CHST8_Y251] 3.24
HHLSTYTKMLF [CHST8_Y251_R247H] 3.85

The binders below were run against SHP2 N-SH2 domain L43F in the same assay as above. Conditions: peptide library: pTyr-Var.

Enrichment score, inactive:
GHRPVYSEDEQ [CHST6_Y362_Y358H] 0.679
EYKKKYSDADI [CKAP5_Y1860] 0.654
EYQKKYSDADI [CKAP5_Y1860_K1857Q] 0.53
EFKKKYSDADI [CKAP5_Y1860_YF] 0.537
DLAGRYYALKS [CKB_Y173] 1.08
DLAGRYYALRS [CKB_Y173_K177R] 0.688
LAGRYYALKSM [CKB_Y174] 1.72

Enrichment score, active:
HRLSTYTKMLF [CHST8_Y251] 3.35
HHLSTYTKMLF [CHST8_Y251_R247H] 3.69

Each binder was assayed against SHP2 N-SH2 domain T42A in the same assay as above. Conditions: peptide library: pTyr-Var.

Enrichment score, active:
HRLSTYTKMLF [CHST8_Y251] 5.06
HHLSTYTKMLF [CHST8_Y251_R247H] 8.43

Enrichment score, inactive:
GHRPVYSEDEQ [CHST6_Y362_Y358H] 0.606
EYKKKYSDADI [CKAP5_Y1860] 0.501
EYQKKYSDADI [CKAP5_Y1860_K1857Q] 0.368
EFKKKYSDADI [CKAP5_Y1860_YF] 0.427
DLAGRYYALKS [CKB_Y173] 0.666
DLAGRYYALRS [CKB_Y173_K177R] 0.554
LAGRYYALKSM [CKB_Y174] 1.29

Each binder was assayed against SHP2 N-SH2 domain T52S in the same assay as above. Conditions: peptide library: pTyr-Var.

Enrichment score, inactive:
GHRPVYSEDEQ [CHST6_Y362_Y358H] 0.645
EYKKKYSDADI [CKAP5_Y1860] 0.645
EYQKKYSDADI [CKAP5_Y1860_K1857Q] 0.577
EFKKKYSDADI [CKAP5_Y1860_YF] 0.482
DLAGRYYALKS [CKB_Y173] 0.961
DLAGRYYALRS [CKB_Y173_K177R] 0.912
LAGRYYALKSM [CKB_Y174] 1.63

Enrichment score, active:
HRLSTYTKMLF [CHST8_Y251] 3.66
HHLSTYTKMLF [CHST8_Y251_R247H] 4.93

The binders below were run against SHP2 N-SH2 domain wild-type in the same assay as above. Conditions: peptide library: pTyr-Var.

Enrichment score, active:
HRLSTYTKMLF [CHST8_Y251] 3.32

Enrichment score, inactive:
GHRPVYSEDEQ [CHST6_Y362_Y358H] 0.828
HHLSTYTKMLF [CHST8_Y251_R247H] 2.56
EYKKKYSDADI [CKAP5_Y1860] 0.751
EYQKKYSDADI [CKAP5_Y1860_K1857Q] 0.888
EFKKKYSDADI [CKAP5_Y1860_YF] 0.54
DLAGRYYALKS [CKB_Y173] 0.732
DLAGRYYALRS [CKB_Y173_K177R] 0.81
LAGRYYALKSM [CKB_Y174] 1.26

From the supplement of paper PMC10369915
